This note sets out measurements from the supplement of paper PMC10126150.

The subject of the data set is ATP. The experiment in a line: switch fluorescence ratio, 500 uM ATP over buffer (Cy3 cluster intensity, sum of 5 cycles each) (fold (ratio)); higher = stronger signal-on switching upon ATP binding; sequences stand for … in TCGTCGGCAGCGTCAGATGTGTATAAGAGACAGTTTTTTTTTTTTTTTTTTTTTTTTT…TC. The conditions noted are these: aptamer strand: ATP DNA aptamer (quencher-CACCTGGGGGAGTATTGCGGAGGAAGG + anchor), 100 nM annealed; ATP concentration: 500 uM; one replicate. The method in brief: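 Values give the fluorescence ratio for each switch-domain sequence, averaged from per-cluster ratios of summed target-cycle to summed buffer-cycle Cy3 intensity. The Cy3-labelled switching-strand clusters sat on a modified Illumina MiSeq flow-cell, were annealed to 100 nM quencher-labelled ATP aptamer, and were imaged in selection buffer, then after 15 min with 500 uM ATP at 22 °C. Five cycles ran with NaOH stripping and re-annealing between them, and clusters outside 100-1000 RFU were excluded.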

Sequences with one replicate were seen in a single cluster, so their values are uncertain.
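Further: ATP exposure 15 min at 22 °C before imaging.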

In the case of ATTCCTAACG, the switch fluorescence ratio is 1.06.

As to AGCTGGTCAG, the switch fluorescence ratio is 1.01.

On to CCTTTGTGCA, for which the switch fluorescence ratio is 1.08.

For TGTGGGCTAG, the switch fluorescence ratio is 0.934.

On to CTAAAACAT, for which the switch fluorescence ratio worked out at 1.04.

TCTCAGGGAG: the switch fluorescence ratio is 0.978.

For the sequence CTCTGGGCGA, the switch fluorescence ratio amounted to 1.1.

Take CATCCGTAG: the switch fluorescence ratio amounted to 3.77.

Consider GAAATTGTCG, for which the switch fluorescence ratio turned out to be 0.961.

With AGCGTGCAAC, the switch fluorescence ratio was 0.999.

Turning to GGTTAGTTTG, the switch fluorescence ratio is 1.03.

As for GATTCTATAT, the switch fluorescence ratio came to 0.996.

In the case of TCCCCCGTGT, the switch fluorescence ratio is 1.26.

For the sequence GATGCCGACC, the switch fluorescence ratio was determined as 1.05.

For CATGGTGTCT, the switch fluorescence ratio stood at 0.98.

Turning to TTCATGACAG, the switch fluorescence ratio amounted to 0.962.

For the sequence AGGGATCGCA, the switch fluorescence ratio is 1.03.

As for AATGTGTCGA, the switch fluorescence ratio turned out to be 1.06.

With GACTGATATC, the switch fluorescence ratio was found to be 1.03.

In the case of ATGAGGGTGT, the switch fluorescence ratio was 1.11.

On to CCTGTCAAAT, for which the switch fluorescence ratio is 1.12.

For TAATATGTTT, the switch fluorescence ratio was found to be 0.992.

For the sequence GTCATAACGG, the switch fluorescence ratio came out at 0.983.

Regarding TCGGGATTT, the switch fluorescence ratio came out at 0.968.

For GCATTGTTGA, the switch fluorescence ratio was found to be 1.01.

On to GTCCTATTTG, for which the switch fluorescence ratio worked out at 0.936.

GACGTTATTT: the switch fluorescence ratio amounted to 1.05.

Take TAAGACCTTG: the switch fluorescence ratio is 1.02.

As to GAAGATCCAA, the switch fluorescence ratio amounted to 1.

In the case of TTTCAACTTT, the switch fluorescence ratio is 1.01.

In the case of ATGGTGAACT, the switch fluorescence ratio stood at 1.01.

On to CTAATTTTAG, for which the switch fluorescence ratio was 0.988.

As to GAAAGCTATT, the switch fluorescence ratio came to 1.

As for TATTCAGCTT, the switch fluorescence ratio was 1.

With TAAGAAGGAG, the switch fluorescence ratio was found to be 0.96.

Regarding CAATAGACGA, the switch fluorescence ratio was determined as 1.02.

As for TGTTCTCTGC, the switch fluorescence ratio worked out at 1.05.

Regarding GGCTCAATTG, the switch fluorescence ratio came to 1.

With AATCGGTCGG, the switch fluorescence ratio amounted to 1.03.

For GTCATTGATG, the switch fluorescence ratio is 0.99.

As to CGTCGGGTTC, the switch fluorescence ratio was determined as 1.02.

Consider TTTTGGTCAG, for which the switch fluorescence ratio amounted to 1.01.

In the case of GATTGTGGGT, the switch fluorescence ratio is 1.03.

Turning to GCTATTCTAA, the switch fluorescence ratio is 1.

As for ATCATTGGAA, the switch fluorescence ratio was determined as 0.966.

For GTTAGCGGCG, the switch fluorescence ratio was 1.04.

As to CTAATCAAGC, the switch fluorescence ratio worked out at 0.996.

For ATGGTGCTTC, the switch fluorescence ratio was 0.952.

On to GTGATAGTTT, for which the switch fluorescence ratio amounted to 0.99.

In the case of GGCTACCCCT, the switch fluorescence ratio came to 1.08.

In the case of CCAGGGTGG, the switch fluorescence ratio was found to be 1.05.

With GTGCGATCTC, the switch fluorescence ratio worked out at 1.26.

Turning to TGGGTCAAGC, the switch fluorescence ratio was 1.

In the case of TTGTTGCGT, the switch fluorescence ratio came out at 0.983.

For AGTGAGCAAG, the switch fluorescence ratio was 1.

For TTGTGCTTGC, the switch fluorescence ratio is 0.986.

On to TGCCTTAGGC, for which the switch fluorescence ratio was determined as 1.01.

For GCATGCCATG, the switch fluorescence ratio came to 1.02.

In the case of TTCCAGTTTA, the switch fluorescence ratio stood at 0.947.

For the sequence AGTCCACTC, the switch fluorescence ratio came to 1.05.

Regarding AGGTGGATTG, the switch fluorescence ratio came out at 0.965.

GAGTGACTTC: the switch fluorescence ratio is 1.

With GCCTCCCTGT, the switch fluorescence ratio came to 1.21.

In the case of TCTCACGTTT, the switch fluorescence ratio came out at 0.994.

On to TATGTGTTGA, for which the switch fluorescence ratio was 1.04.

Take TTCGACAGTC: the switch fluorescence ratio amounted to 0.947.

Consider CCTGAGAGT, for which the switch fluorescence ratio was 1.04.
